PubChem BioAssay AID686978 (National Center for Advancing Translational Sciences (NCATS), 2013)
About 64,000 (15%) of roughly 420,000 compounds were called active. This list was built around the results that the source calls inconclusive (neither active nor inactive); the mix of calls is not that of the screen. The call rests on the fitted dose curve; in most records, active means well fitted inhibition curve with a large enough effect; inconclusive means small, poorly fitted or top-dose-only effect; inactive means flat fitted curve, though single readings scatter. No potency is given beside an inconclusive call; the fits are too rough.

Experiment: qHTS for Inhibitors of human tyrosyl-DNA phosphodiesterase 1 (TDP1): qHTS in cells in absence of CPT; further: nearly all actives have a fitted effect of over 55% in size
Settings: DT40 Tdp1-/- hTDP1 cells, no CPT, ATP luminescence, 48 h; activity change, negative = growth inhibition: at 46.2 µM (top of the series) unless noted
How it was run: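 Growth kinetics read by CellTiter-Glo luminescence after ≥48 hr at 37 °C. Cells: DT40 Tdp1-/- stably carrying human TDP1, 400 per well, compound exposure in the absence of CPT (DMSO vehicle).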
On the % scale 0 is the no-effect control and ±100 the full control effect; potency means the concentration at half of the fitted maximal effect; tags describe the fitted curve by direction and shape.

**Q.** Which “activity change, negative = growth inhibition” value does the source give for `O=C(CC1SC(=O)N(c2ccccc2)C1=O)Nc1ccccc1` (stereo unspecified) here?
**A.** inactive: -24.6%

**Q.** For `Cc1ccc2nc(N(Cc3cccnc3)C(=O)c3cccs3)sc2c1`, which “activity change, negative = growth inhibition” value is on record?
**A.** inactive: -0.567%

**Q.** With `Cc1ccccc1CNC(=O)c1ccc(CS(=O)Cc2ccc(Cl)cc2)o1` (stereo unspecified) as the compound, how does the Potency read?
**A.** inconclusive [inhibitor, partial curve]

**Q.** For `O=C(N/N=C/c1ccc(OCC2COCCO2)cc1)c1ccc(Br)cc1` (stereo unspecified), which Potency is on record?
**A.** active: 18.4 µM

**Q.** With `CNc1nc(Nc2ccc([N+](=O)[O-])cc2)nc(OCC(F)(F)F)n1` as the compound, how does the “activity change, negative = growth inhibition” value read?
**A.** inactive: -6.83%

**Q.** For `COc1ccc(-n2c(=O)c3sc4ccccc4c3n(CC(=O)NCc3ccccc3)c2=O)cc1`, which Potency is on record?
**A.** inconclusive [inhibitor, partial curve]

**Q.** For `CNC(=S)N/N=C1\CC(c2ccccc2)Oc2ccccc21` (stereo unspecified), which Potency is on record?
**A.** active: 2.59 µM

**Q.** Which Potency does the source give for `CC/C(=N\NC(=O)c1cc(C)nc2ccccc12)c1ccc(C)s1` here?
**A.** inconclusive [inhibitor, partial curve, poor fit]

**Q.** With `O=C(Cn1[nH]c(=O)c2ccccc2c1=O)NC1CCCCCC1` as the compound, how does the “activity change, negative = growth inhibition” value read?
**A.** inactive: -27.9%

**Q.** Which “activity change, negative = growth inhibition” value does the source give for `CCN(C(C)=O)c1cccc2ccccc12` here?
**A.** inactive: -1.76%

**Q.** With `CCCOc1cccc(C(=O)NC(=S)Nc2cccc(NC(=O)c3ccccc3Cl)c2)c1` as the compound, how does the Potency read?
**A.** inconclusive [inhibitor, single point]

**Q.** With `CC1(C(=O)Nc2cnc3ccccc3c2)CCN1Cc1ccc(-c2ccccc2)o1` (stereo unspecified) as the compound, how does the Potency read?
**A.** active: 16.4 µM

**Q.** Which Potency does the source give for `CCc1ccc(S(=O)(=O)N2c3ccc(C)cc3C3CN(C)CCC32)cc1` (stereo unspecified) here?
**A.** inconclusive [inhibitor, single point]

**Q.** Which Potency does the source give for `O=C(CN1CCOCC1)Nc1ccccc1-c1ccccc1` here?
**A.** inconclusive [inhibitor, single point]

**Q.** With `COCc1nnc(SCC(=O)Nc2cccc(Cl)c2C)n1-c1ccccc1` as the compound, how does the Potency read?
**A.** inconclusive [inhibitor, partial curve, poor fit]

**Q.** For `COc1ccccc1CN(C)C(=O)COC(=O)c1ccc(Cl)nc1`, which Potency is on record?
**A.** inconclusive [inhibitor, single point]

**Q.** With `COc1ccc(CC(=O)N(CC2CCCO2)c2nc3ccccc3s2)cc1` (stereo unspecified) as the compound, how does the Potency read?
**A.** active: 13 µM

**Q.** With `O=C(Nc1nc2ccccc2s1)c1cc(-c2ccccc2)nn1-c1ccccc1` as the compound, how does the Potency read?
**A.** active: 10.3 µM

**Q.** Which Potency does the source give for `O=C(CC1C(=O)NCCN1CCCc1ccccc1)NCCc1ccccc1Cl` (stereo unspecified) here?
**A.** inconclusive [inhibitor, single point]

**Q.** For `CC(c1ccon1)N(C)C(=O)CCc1nnc(Cc2ccc(-c3ccccc3)cc2)o1` (stereo unspecified), which Potency is on record?
**A.** inconclusive [inhibitor, single point]

**Q.** Which Potency does the source give for `O=C(NCc1ccco1)/C(=C\C=C\c1ccccc1)NC(=O)c1ccccc1Br` here?
**A.** inconclusive [inhibitor, single point]
